Source: PubChem BioAssay AID1159614 (National Center for Advancing Translational Sciences (NCATS), 2016)
Screen size: about 45,000 compounds; about 65 (0.1%) were called active. Calls follow the shape of the dose curve; as a rule, active = well fitted activation curve with a large enough effect; inconclusive = small, poorly fitted or top-dose-only effect; inactive = no such curve, though single readings can be large or run the other way. The list shows a part of the results.
Also: 0% is about no effect; nearly all actives have a fitted effect of over 65% in size.

The compounds below were run against Galactocerebrosidase (Homo sapiens) (UniProt P54803) (assay: A Novel Cell-Based Assay to Identify Small Molecules for B -Galactocerebrosidase). Conditions: 145M-Twi-hGALC-G270D cells (Twitcher mouse brain line with human GALC G270D), HMU-beta-Gal fluorescence, 48 h; series mostly up to 57.5 µM; activation: at the top concentration.
Chain of UniProt P54803 (P54803 whole entry, looked up): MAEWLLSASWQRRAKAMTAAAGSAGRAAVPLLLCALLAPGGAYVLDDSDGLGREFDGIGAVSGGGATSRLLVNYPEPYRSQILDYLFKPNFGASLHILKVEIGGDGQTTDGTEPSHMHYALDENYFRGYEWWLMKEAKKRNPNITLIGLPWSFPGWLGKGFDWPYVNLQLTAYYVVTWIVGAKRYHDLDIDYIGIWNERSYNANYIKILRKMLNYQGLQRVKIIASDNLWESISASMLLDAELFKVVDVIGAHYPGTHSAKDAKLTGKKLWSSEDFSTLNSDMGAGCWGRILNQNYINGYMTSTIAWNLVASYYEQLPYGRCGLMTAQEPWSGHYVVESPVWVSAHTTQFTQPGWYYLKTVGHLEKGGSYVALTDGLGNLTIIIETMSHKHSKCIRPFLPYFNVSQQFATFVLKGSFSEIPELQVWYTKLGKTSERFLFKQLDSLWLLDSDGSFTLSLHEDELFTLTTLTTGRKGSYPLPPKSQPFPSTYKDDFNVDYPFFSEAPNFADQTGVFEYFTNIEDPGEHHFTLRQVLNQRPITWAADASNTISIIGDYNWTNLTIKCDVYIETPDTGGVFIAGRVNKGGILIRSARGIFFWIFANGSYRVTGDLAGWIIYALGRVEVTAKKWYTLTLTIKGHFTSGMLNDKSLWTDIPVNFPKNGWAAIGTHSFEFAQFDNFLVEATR
Procedure, shortened: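 Brain-derived Twitcher mouse 145M-Twi cells stably expressing human GALC-G270D or wild-type GALC, treated live, then residual GALC activity read by fluorescence of HMU-b-Gal substrate (0.1 mM final) in citrate-phosphate buffer pH 5.2 with sodium taurocholate. Signal increase indicates enhancement.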
`CCOc1ccc(Sc2cc(C(=O)NC(C)c3ccccc3)c3ccccc3n2)cc1` (configuration not stated) was tested, and the “activation” value was inactive: -12.6%. `Cc1cc(Cl)ccc1NC(=O)C(=O)NCc1ccco1` was tested, and the “activation” value was inactive: 2.98%. For `Cc1ccc(C(=O)Nc2ccc(NC(=O)c3cccs3)cc2)cc1C`, the “activation” value was inactive: -3.66%. With `Cc1cc(C)c(NC(=O)Cn2c(=O)n(-c3ccc(CC(=O)NCC4CCCO4)cc3)c(=O)c3ccccc32)c(C)c1` (configuration not stated) the “activation” value was inactive: -4.09%. In the case of `Cc1ccc(-c2nc3n(n2)C(=O)CC(c2ccc(Cl)cc2)S3)cc1` (configuration not stated), the “activation” value is reported as inactive: -9.97%. `Cc1ccc(OCC(=O)OCc2cc(=O)n3nc(-c4cccs4)sc3n2)cc1C` was tested, and the “activation” value was inactive: -19.7%. `O=C(NCc1ccc(F)cc1)c1cc2n(n1)CCCN(Cc1ccc(F)cc1)C2=O` was tested, and the “activation” value was inactive: -13.4%. In the case of `Cc1ccc(C(=O)Nc2sc3c(c2C(=O)NCc2ccco2)CCC(C(C)(C)C)C3)cc1` (configuration not stated), the “activation” value is reported as inactive: -17.9%. With `Cc1ccc(C)c(N2CCN(CCCNC(=O)c3cnn(-c4ccccc4Cl)c3C3CCN(C(=O)OC(C)(C)C)CC3)CC2)c1` the “activation” value was inactive: -22.1%. For `Cc1ccc2nc(NC(=O)COc3ccc(F)cc3)sc2c1`, the “activation” value was inactive: -11.3%. For `CCc1cccc(NC(=O)CSC2=Nc3ccccc3N=C(c3ccc(F)cc3)C2)c1`, the “activation” value was inactive: -29.4%. In the case of `CCOc1ccccc1C(=O)Nc1ccc(S(=O)(=O)Nc2nc(C)cc(C)n2)cc1`, the “activation” value is reported as inactive: -20.2%. For `COc1cc(NC(=O)CN(c2ccc(C)cc2)S(=O)(=O)c2cccc3nonc23)cc(OC)c1`, the “activation” value was inactive: -20.4%. `CCN1CCN(c2nc3c(S(=O)(=O)c4ccc(Br)cc4)nnn3c3ccsc23)CC1` was tested, and the “activation” value was inactive: -10.3%. `Cc1ccc(NC(=O)Cn2cnc3sc(C(=O)O)c(C)c3c2=O)cc1Cl` was tested, and the “activation” value was inactive: -14.2%. In the case of `O=C(CSc1nnc(CNC(=O)c2cccc(F)c2)n1-c1ccccc1)Nc1ccccc1F`, the “activation” value is reported as inactive: -24.3%. For `Cc1c(CCNC(=O)c2ccc(Br)o2)sc2nc(-c3ccc(F)cc3)nn12`, the “activation” value was inactive: 2.9%. In the case of `COc1ccc2c(CNCc3cccs3)c(C(=O)O)n(Cc3ccccc3)c2c1`, the “activation” value is reported as inactive: -6.46%. For `COc1ccc(NC(=O)Cn2c(SCc3cc(C)ccc3C)nc3ccncc32)c(OC)c1OC`, the “activation” value was inactive: -19.1%. For `CCOc1ccccc1NC(=O)Cn1cc(C(=O)c2cccc(OC)c2)c(=O)c2ccc(C)nc21`, the “activation” value was inactive: -10.5%. `O=C(Cn1c(=O)c2cccn2c2ccccc21)NCCc1ccccc1` was tested, and the “activation” value was inactive: -3.17%. With `CCOc1cc(CNC(=O)C2COc3ccccc3C2)cc(OCC)c1OCC` (configuration not stated) the “activation” value was inactive: -14.7%. In the case of `CCOc1ccc(-c2nonc2NC(=O)COc2c(C)cc(C)cc2C)cc1OCC`, the “activation” value is reported as inactive: -4.24%. For `CCCCCn1c(C(C)NC(=O)c2ccccc2)nc2ccccc21` (configuration not stated), the “activation” value was inactive: -4.59%. In the case of `COc1ccc(Nc2nc(-c3ccc(C)cc3)nc3ccccc23)c(OC)c1`, the “activation” value is reported as inactive: -14.5%. In the case of `Fc1ccc(-c2noc3ncnc(NCCc4ccccc4)c23)cc1`, the “activation” value is reported as inactive: -11.2%. `COc1ccc2c(c1)c1c(c(=O)n(Cc3ccccc3)c(=O)n1CC(=O)NCc1ccccc1Cl)n2C` was tested, and the “activation” value was inactive: -7.18%. For `O=C(COc1ccc(Cl)cc1)Nc1ccc(-c2nc3ccccc3s2)c(O)c1`, the “activation” value was inactive: -10.4%. In the case of `CCOC(=O)C1CCC(CN(Cc2cccc(Br)c2)S(=O)(=O)c2ccc(C)cc2)CC1` (configuration not stated), the “activation” value is reported as inactive: -6.91%. With `CCc1ccc(C(=O)c2cn(CC(=O)Nc3ccc4c(c3)OCO4)c3cc(OC)c(OC)cc3c2=O)cc1` the “activation” value was inactive: -10.8%. `COc1ccc(S(=O)(=O)Nc2ccc3c(c2)N(C(C)=O)CCC3)cc1F` was tested, and the “activation” value was inactive: -3.52%. With `Cc1ccc(-c2nnc(SCc3ccccc3C)o2)cc1` the “activation” value was inactive: -3.68%. With `CCc1ccccc1NC(=O)c1c(NC(=O)c2ccccc2)sc2c1CCCC2` the “activation” value was inactive: -6.01%. With `CCOc1cc(OCC)c(C(=O)CCC(=O)O)cc1OCC` the “activation” value was inactive: -18.2%. `Cc1ccc(C)c(N2CCN(C(=O)C3CCCN(S(=O)(=O)c4ccc5c(c4)oc(=O)n5C)C3)CC2)c1` (configuration not stated) was tested, and the “activation” value was inactive: 0.435%. For `Cc1ccccc1C(=O)n1nc(-c2ccco2)nc1NCc1ccc(Cl)cc1`, the “activation” value was inactive: -2.4%. In the case of `COc1ccc(CCn2cc3c(c2-c2ccc(Br)cc2)c(=O)n(C)c(=O)n3C)cc1OC`, the “activation” value is reported as inactive: -8.38%. For `Cc1ccc(C(C)C)c(OCC(=O)NCC2(N(C)C)CCCCC2)c1`, the “activation” value was inactive: -7.4%. In the case of `COc1ccc(CNC(=O)CCn2cccn2)cc1`, the “activation” value is reported as inactive: -4.56%. `Cc1ccccc1N1CC(c2nc3ccccc3n2CCC2CCCCC2)CC1=O` (configuration not stated) was tested, and the “activation” value was inactive: -37.6%. In the case of `O=C(NCCc1ccccc1Cl)c1ccc(Cn2c(=O)c3cccn3c3cccnc32)cc1`, the “activation” value is reported as inactive: 0.176%. For `COc1ccc(-c2nc(C)c(CCNC(=O)C(=O)Nc3ccccc3OC)s2)cc1`, the “activation” value was inactive: -19.7%. With `COc1ccc(OC(=O)N(CC(=O)O)Cc2ccc(OCCc3nc(-c4ccccc4)oc3C)cc2)cc1` the “activation” value was inactive: 0.26%. With `Cc1ccc(-c2cc3ncc4c(n3n2)-c2cc(C)ccc2OC4)cc1` the “activation” value was inactive: -12.8%. With `Cc1cc(C)c2c(=O)cc(CSCC(=O)Nc3ccccc3Cl)[nH]c2c1` the “activation” value was inactive: -9.94%. With `CCOC(=O)C1=C(CN2CCC(C)CC2)NC(=O)NC1c1ccc(F)cc1` (configuration not stated) the “activation” value was inactive: -8.99%. `Cc1ccc2nc(N3CCN(c4cccc(Cl)c4)CC3)c(-n3nc(C)cc3C)nc2c1` was tested, and the “activation” value was inactive: -13.1%. `Cc1cccc(Oc2nc3c(C)cccn3c(=O)c2/C=C(\C#N)c2nc3ccccc3[nH]2)c1` was tested, and the “activation” value was inactive: -21.8%. For `COc1cc(Cl)c(NC(=O)CCS(=O)(=O)c2cc3c(cc2Cl)NC(=O)CO3)c(OC)c1`, the “activation” value was inactive: -11.8%. `COc1ccc(OC)c2sc(N3CCN(C(=O)C(C)(C)C)CC3)nc12` was tested, and the “activation” value was inactive: -4.62%. `COc1cc(-c2cc(OC)c3c(C)oc(C)c3c(=O)c2)ccc1OC(=O)c1ccccc1Cl` was tested, and the “activation” value was inactive: 1.83%. With `COc1ccc(CNS(=O)(=O)c2cnc(N)nc2)c(OC)c1` the “activation” value was inactive: 2.01%. `Cc1ccc2c(Sc3ccc(Cl)cc3)c(C(=O)N3CCC(C)CC3)[nH]c2c1` was tested, and the “activation” value was inactive: -11%. With `CCN(CC)CCNC(=O)c1ccc(Cn2c(SCc3ccccc3)nc3cccnc32)cc1` the “activation” value was inactive: -17.8%. In the case of `CS(=O)(=O)c1ccc(-c2nnc(NC(=O)c3ccc4c(c3)OCCO4)o2)cc1`, the “activation” value is reported as inactive: -16.3%. With `COc1ccccc1CNC(=O)C1CCC(CNS(=O)(=O)c2ccc3c(c2)CCCC(=O)N3)CC1` (configuration not stated) the “activation” value was inactive: -9.29%. `COCCCNC(=O)c1ccc(NC(=O)c2nsc3ccccc23)cc1` was tested, and the “activation” value was inactive: -22.8%. `Cc1ccc(N2C(=O)CSC23C(=O)N(CC(=O)NCc2ccccc2)c2ccccc23)cc1C` (configuration not stated) was tested, and the “activation” value was inactive: -21.8%. For `CNC(=O)c1c(NC(=O)c2ccc(S(=O)(=O)N3CCC(C)CC3)cc2)sc2c1CCC2`, the “activation” value was inactive: 18.2%. For `Cc1cccc(C)c1OCC(=O)NCC1(N(C)C)CCCCC1`, the “activation” value was inactive: -5.02%. For `COc1ccc(CNC(=O)c2ccc(N3CCCC3)c(NC(=O)NCc3ccc(F)cc3)c2)cc1`, the “activation” value was inactive: -24.6%. For `CCOc1cc(CNC(=O)c2sc3ncnc(N(C)C4CCCCC4)c3c2C)ccc1OC`, the “activation” value was inactive: -1.47%.
